Reference: the supplement of paper PMC12217912
The other results are listed elsewhere or left out. Sequences were assembled here from the parent chain. Inactive controls read about 0.05.

B1: TEV protease; numbered along this chain (parent)
chain: MGESLFKGPRDYNPISSSICHLTNESDGHTTSLYGIGFGPFIITNKHLFRRNNGTLVVQSLHGVFKVKDTTTLQQHLVDGRDMIIIRMPKDFPPFPQKLKFREPQREERICLVTTNFQTKSMSSMVSDTSCTFPSGDGIFWKHWIQTKDGQCGSPLVSTRDGFIVGIHSASNFTNTNNYFTSVPKNFMELLTNQEAQQWVSGWRLNADSVLWGGHKVFMVKPEEPFQPVKEATQL

Variants of: B1
Assay: raw area under fraction-flipped curve 0-4 h after induction (AUC4h, not background-subtracted), DNA-recorder readout of cleavage of the substrate (dimensionless); higher = more cleavage of the substrate by the protease variant
Conditions: temperature: 34 °C; time window: 0-4 h after rhamnose induction
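Note: Bxb1 expression induced with 0.2% (w/v) L-rhamnose at OD600 near 0.5, cultures sampled hourly, flipped fraction per protease–substrate barcode pair counted by paired-end Illumina sequencing.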

## MGESLFKGPRDYNPISSSICHLTNESDGHTTSLYGIGFGPFIITNKHLFRRNNGTLVVQSLHGVFKVKDTTTLQQHLVDGRDMIIIRMPKDFPPFPQKLKFREPQREERICLVTTNFQTKSMSSMVSDTSCTFPSGDGIFWKHWIQTKDGQCGSPLVSTRDGFIVRIHSASNFTNTNNYFTSVPKNFMELLTNQEAQQWVSGWRLNADSVLWGGHKVFMVKPEEPFQPVKEATQL [G166R]
  area with substrate ENLYFQC: 0.0428
  area with substrate ENLYFQD: 0.0502
  area with substrate ENLYFQF: 0.0491
  area with substrate ENLYFQG: 0.0458
  area with substrate ENLYFQH: 0.0475
  area with substrate ENLYFQI: 0.0538
  area with substrate ENLYFQK: 0.0445
  area with substrate ENLYFQM: 0.0548
  area with substrate ENLYFQN: 0.0473
  area with substrate ENLYFQR: 0.0386
  area with substrate ENLYFQS: 0.0518
  area with substrate ENLYFQT: 0.0538
  area with substrate ENLYFQV: 0.0465
  area with substrate ENLYFQW: 0.043
  area with substrate ENLYFQY: 0.0373

## MGESLFKGPRDYNPISSSICHLTNESDGHTTSLYGIGFGPFIITNKHLFRRNNGTLVVQSLHGVFKVKDTTTLQQHLVDGRDMIIIRMPKDFPPFPQKLKFREPQREERICLVTTNFQTKSMSSMVSDTSCTFPSGDGIFWKHWIQTKDGQCGSPLASTRDGFIVGIHSASNFTNTNNYFTSVPKNFMELLTNQEAQQWVSGWRLNADSVLWGGHKVFMVKPEEPFQPVKEATQL [V157A]
  area with substrate ENLYFQC: 0.106
  area with substrate ENLYFQF: 0.0714
  area with substrate ENLYFQH: 0.0649
  area with substrate ENLYFQI: 0.0525
  area with substrate ENLYFQL: 0.0199
  area with substrate ENLYFQP: 0.0641
  area with substrate ENLYFQR: 0.0644
  area with substrate ENLYFQS: 0.0947
  area with substrate ENLYFQT: 0.073
  area with substrate ENLYFQV: 0.039
  area with substrate ENLYFQW: 0.0659

## MGESLFKGPRDYNPISSSICHLTNESDGHTTSLYGIGFGPFIITNKHLFRRNNGTLVVQSLHGVFKVKDTTTLQQHLVDGRDMIIIRMPKDFPPFPQKLKFREPQREERICLVTTDFQTKSMSSMVSDTSCTFPSGDGIFWKHWIQTKDGQCGSPLVSTRDGFIVGIHSASNFTNTNNYFTSVPKNFMELLTNQEAQQWVSGWRLNADSVLWGGHKVFMVKPEEPFQPVKEATQL [N116D]
  area with substrate ENLYFQC: 0.111
  area with substrate ENLYFQD: 0.0086
  area with substrate ENLYFQE: 0.0737
  area with substrate ENLYFQF: 0.0759
  area with substrate ENLYFQG: 0.0998
  area with substrate ENLYFQH: 0.115
  area with substrate ENLYFQI: 0.0587
  area with substrate ENLYFQK: 0.0588
  area with substrate ENLYFQL: 0.0437
  area with substrate ENLYFQM: 0.0815
  area with substrate ENLYFQN: 0.0882
  area with substrate ENLYFQP: 0.0611
  area with substrate ENLYFQR: 0.0565
  area with substrate ENLYFQS: 0.102
  area with substrate ENLYFQT: 0.0721
  area with substrate ENLYFQV: 0.0596
  area with substrate ENLYFQY: 0.076

## MGESLFKGPRDYNPISSSICHLTNESDGHTTSLYGIGFGPFIITNKHLFRRNNGTLVVQSLHGVFKVKDTTTLQQHLVDGRDMIIIRMPKDFPPFPQKLKFREPQREERICLVTTNFQTKSMSSMVSDTSCTFPSGDGIFMKHWIQTKDGQCGSPLVSTRDGFIVGIHSASNFTNTNNYFTSVPKNFMELLTNQEAQQWVSGWRLNADSVLWGGHKVFMVKPEEPFQPVKEATQL [W141M]
  area with substrate ENLYFQC: 0.0742
  area with substrate ENLYFQF: 0.0406
  area with substrate ENLYFQG: 0.0684
  area with substrate ENLYFQH: 0.0597
  area with substrate ENLYFQI: 0.0561
  area with substrate ENLYFQK: 0.0622
  area with substrate ENLYFQL: 0.055
  area with substrate ENLYFQM: 0.0645
  area with substrate ENLYFQN: 0.0431
  area with substrate ENLYFQR: 0.0803
  area with substrate ENLYFQS: 0.0725
  area with substrate ENLYFQT: 0.0609
  area with substrate ENLYFQV: 0.006
  area with substrate ENLYFQW: 0.0605
  area with substrate ENLYFQY: 0.0563

## MGESLFKGPRDYNPISSSICHLTNESDGHTTSLYGIGFGPFIITNKHLFRRNNGTLVVQSLHGVFKVKDTTTLQQHLVDGRDMIIIRMPKDFPPFPQKLKFREPQREERICLVTTNFQTKSMSSMVSDTSCTFPSGDGICWKHWIQTKDGQCGSPLVSTRDGFIVGIHSASNFTNTNNYFTSVPKNFMELLTNQEAQQWVSGWRLNADSVLWGGHKVFMVKPEEPFQPVKEATQL [F140C]
  area with substrate ENLYFQC: 0.0637
  area with substrate ENLYFQD: 0.0563
  area with substrate ENLYFQF: 0.0564
  area with substrate ENLYFQG: 0.072
  area with substrate ENLYFQH: 0.0537
  area with substrate ENLYFQI: 0.0639
  area with substrate ENLYFQK: 0.0616
  area with substrate ENLYFQL: 0.061
  area with substrate ENLYFQN: 0.0555
  area with substrate ENLYFQR: 0.0594
  area with substrate ENLYFQS: 0.0652
  area with substrate ENLYFQT: 0.0749
  area with substrate ENLYFQV: 0.066
  area with substrate ENLYFQW: 0.0616
  area with substrate ENLYFQY: 0.0733

## MGESLFKGPRDYNPISSSICHLTNESDGHTTSLYGIGFGPFIITNKHLFRRNNGTLVVQSLHGVFKVKDTTTLQQHLVDGRDMIIIRMPKDFPPFPQKLKFREPQREERICLVTTNFQTKSMSSMVSDTSCTFPSGDGIKWKHWIQTKDGQCGSPLVSTRDGFIVGIHSASNFTNTNNYFTSVPKNFMELLTNQEAQQWVSGWRLNADSVLWGGHKVFMVKPEEPFQPVKEATQL [F140K]
  area with substrate ENLYFQC: 0.0622
  area with substrate ENLYFQD: 0.0756
  area with substrate ENLYFQF: 0.0675
  area with substrate ENLYFQM: 0.0497
  area with substrate ENLYFQN: 0.0599
  area with substrate ENLYFQR: 0.0572
  area with substrate ENLYFQS: 0.0645
  area with substrate ENLYFQT: 0.0601
  area with substrate ENLYFQW: 0.0653

## MGESLFKGPRDYNPISSSICHLTNESDGHTTSLYGIGFGPFIITNKHLFRRNNGTLVVQSLHGVFKVKDTTTLQQHLVDGRDMIIIRMPKDFPPFPQKLKFREPQREERICLVTTNFQTKSMSSMVSDTSCTFPSGDGIFWKHWFQTKDGQCGSPLVSTRDGFIVGIHSASNFTNTNNYFTSVPKNFMELLTNQEAQQWVSGWRLNADSVLWGGHKVFMVKPEEPFQPVKEATQL [I145F]
  area with substrate ENLYFQC: 0.0822
  area with substrate ENLYFQD: 0.116
  area with substrate ENLYFQL: 0.102
  area with substrate ENLYFQR: 0.0475
  area with substrate ENLYFQS: 0.0931
  area with substrate ENLYFQW: 0.0767

## MGESLFKGPRDYNPISSSICHLTNESDGHTTSLYGIGFGPFIITNKHLFRRNNGTLVVQSLHGVFKVKDTTTLQQHLVDGRDMIIIRMPKDFPPFPQKLKFREPQREERICLVTTNFQTKSMSSMVSDTSCTFPSGDGIFWKHWIQEKDGQCGSPLVSTRDGFIVGIHSASNFTNTNNYFTSVPKNFMELLTNQEAQQWVSGWRLNADSVLWGGHKVFMVKPEEPFQPVKEATQL [T147E]
  area with substrate ENLYFQC: 0.0549
  area with substrate ENLYFQD: 0.0718
  area with substrate ENLYFQE: 0.0482
  area with substrate ENLYFQG: 0.0576
  area with substrate ENLYFQH: 0.0623
  area with substrate ENLYFQI: 0.0549
  area with substrate ENLYFQK: 0.0551
  area with substrate ENLYFQL: 0.0591
  area with substrate ENLYFQM: 0.0765
  area with substrate ENLYFQP: 0.0516
  area with substrate ENLYFQR: 0.0641
  area with substrate ENLYFQS: 0.0606
  area with substrate ENLYFQT: 0.0566
  area with substrate ENLYFQW: 0.0559
  area with substrate ENLYFQY: 0.0436

## MGESLFKGPRDYNPISSSICHLTNESDGHTTSLYGIGFGPFIITNKHLFRRNNGTLVVQSLHGVFKVKDTTTLQQHLVDGRDMIIIRMPKDFPPFPQKLKFREPQREERICLVTTNFQTKSMSSMNSDTSCTFPSGDGIFWKHWIQTKDGQCGSPLVSTRDGFIVGIHSASNFTNTNNYFTSVPKNFMELLTNQEAQQWVSGWRLNADSVLWGGHKVFMVKPEEPFQPVKEATQL [V126N]
  area with substrate ENLYFQC: 0.164
  area with substrate ENLYFQI: 0.0669
  area with substrate ENLYFQL: 0.0654
  area with substrate ENLYFQM: 0.0926
  area with substrate ENLYFQN: 0.0746
  area with substrate ENLYFQQ: 0.0667
  area with substrate ENLYFQR: 0.0634
  area with substrate ENLYFQS: 0.11
  area with substrate ENLYFQT: 0.0752
  area with substrate ENLYFQV: 0.0608
  area with substrate ENLYFQW: 0.0549
  area with substrate ENLYFQY: 0.0666
